# Data as given in PubChem BioAssay AID1347428 (National Center for Advancing Translational Sciences (NCATS), 2020).
# In all, about 91,000 compounds went through this assay and about 290 (0.32%) were called active. The inconclusive results got no clear call from the source; some entries with a clear call stand among them for comparison. Calls come from the whole dose curve; as a rule, active = well fitted inhibition curve with a large enough effect; inconclusive = small, poorly fitted or top-dose-only effect; inactive = no such curve, though single readings can be large or run the other way. A potency beside an inconclusive call is a rough fit, not a confirmed value.
# Biological target: Single-stranded DNA cytosine deaminase (Homo sapiens) (UniProt Q9GZX7)
# Test: Primary qHTS assay for inhibitors of Activation Induced Cytidine Deaminase (AID): AID signal; note: nearly all actives have a fitted effect of over 25% in size
# Details: AID deamination FRET fluorescence, UDG-coupled, 4 h; activity change, negative = inhibition: at 115 µM (top of the series)
# Source text: Assay Provider (PI) Patricia Gearhart Ph.D.
# National Institute on Aging
# National Institute of Health (NIH), Bethesda, MD
# Assay Provider (PI) Rahul Kohli Ph.D.
# Perelman School of Medicine
# University of Pennsylvania, Philadelphia, PA
# Activation-Induced Deaminase (AID) is a cytosine deaminase which converts cytosine into uracil within stretches of ssDNA. The presence of uracil in DNA initiates a cascade of mutagenic DNA repair to introduce point mutations and DNA double strand breaks. Specific targeting of AID to the immunoglobulin heavy chain loci (Igh) promotes mutagenesis in the antibody variable region for somatic hypermutation (SHM) or switch regions leading to class switch recombination (CSR). However, AID also plays a role in accumulating unnecessary mutations across the genome. Mis-targeting of AID results in the initiation of tumor development and leads to greater drug resistance among cancer cells when continually expressed. To identify an AID inhibitor, a small molecule library will be screened in collaboration with NCATS core facility at NIH. To confirm biological function, inhibitors will be examined in an in vitro murine B-cell activation assay and subsequent secondary validation screens. Top molecules will be further screened to identify inhibitory efficacy against a wild type primary splenocytes assay. Using these approaches, we hope to identify a small molecule with great efficacy and low toxicity for use as a molecular probe to further characterize AID's intricacies, or even as a therapeutic.
# A FRET based analysis of cytosine deamination, was developed to identify potential inhibitors of AID catalytic activity. This screen has two signal output, Read 1 evaluates the AID inhibition response. The second readout (Read 2) evaluates UDG response and is uses as a counterscreen to exclude false positive inhibitors. Inhibition in AID and inactivity in the UDG signal is the desired outcome for this assay.
# SEQUENCE No. (e.g., 1, 2, 3, etc.); […] (e.g., Cells, Incubation, Reagent, etc.); VALUE; DESCRIPTION
# 1a; Reagent; 3 uL; [4/3x] 1 uM AID/2.67 U/mL UDG
# 1b; Reagent; 3 uL; 2 U/mL UDG
# 1c; Reagent; 3 uL; 1 uM AID
# 2a; Compound; 46 nL; Follow-up plates (0.64 uM - 10 mM)
# 2b; Control; 46 nL; ATA ([…] - 10 mM)
# 3; Time; 10 min; incubation at room temperature
# 5; Time; 4 hr; incubation at room temperature
# 6; Reagent; 4 uL; [2x] 250 mM NaOH
# 7; Time; 15 sec; centrifuge at 1000 rpm
# 8; Time; 30 min; incubation at room temperature
# 9a; Detection; fluorescence (Read 1: AID); EnVision (PerkinElmer) plate reader, 540 excitation and 590 emission filters
# 9b; Detection; fluorescence (Read 2: UDG); EnVision (PerkinElmer) plate reader, 560 excitation and 665 emission filters
# NOTES (numbers refer to sequence above)
# 1a; Reagents were dispensed in a medium-binding black solid-bottom Greiner plates (789176F) using a BioRptr liquid dispenser. Dispense 3 uL of [4/3x] 1 uM AID (provided by Kohli lab) and [4/3x] 2 U/mL UDG (NEB M0280L) into columns 1, 2, 5 to 48.
# 1b; Dispense 3 uL of [4/3x] 2 U/mL UDG into column 3.
# 1c; Dispense 3 uL of [4/3x] 1 uM AID into column 4.
# 2a; Compound (7-points [uM] (0.64; 3.2; 16; 80; 400; 2,000; 10,000; 20,000) double pin-transferred (Dip Factor = 2) using the Kalypsys (Wako USA) pintool equipped with a 1536 pinhead for a final concentration range of 7.32 nM - 114 uM.
# 2b; 10 mM Aurintricarboxylic Acid (Sigma A1895) (ATA, 8-point, n = 2, 1:2.5 dilution in column 2) double pin-transferred (Dip Factor = 2) using the Kalypsys (Wako USA) pintool equipped with a 1536 pinhead for a [final] range of 186 nM - 114 uM.
# 3; Room temperature incubation.
# 4; Dispense 1 uL of substrate mixture from the Kohli lab [4x] […] DJC20 and [4x] 250 nM DJC23 into columns 1 to 48 .
# 5; Room temperature incubation.
# 6; Dispense 4 uL of substrate mixture [2x] 250 mM NaOH into columns 1 to 48.
# 7; Centrifugation step to remove bubbles.
# 8; Room temperature incubation
# 9a; Fluorescence signal (column label AID) was read using the EnVision plate reader. […]
# % is set by controls: 0 for no effect and ±100 for the full control effect; potency is the fitted concentration of half-maximal effect; tags give direction and shape of the fitted curve.
# UniProt Q9GZX7, sequence (Q9GZX7 whole entry, looked up): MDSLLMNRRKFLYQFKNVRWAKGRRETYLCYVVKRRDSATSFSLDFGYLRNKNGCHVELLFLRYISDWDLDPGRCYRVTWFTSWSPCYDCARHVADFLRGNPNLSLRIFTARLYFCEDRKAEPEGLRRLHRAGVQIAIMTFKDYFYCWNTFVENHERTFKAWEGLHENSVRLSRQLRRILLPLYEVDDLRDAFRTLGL
SMILES,Potency,"activity change, negative = inhibition"
CCCOc1ccc(C2C(=O)N(C3CCCCCC3)CC(=O)N2Cc2ccccc2OC)cc1OC (stereo not given),"inconclusive: 35.5 µM [inhibitor, full curve, poor fit]",–
CC(C)(C)NC(=O)CSc1cc(C(=O)NC2CC2)c2ccccc2n1,–,inactive: -2%
CCn1nc(C(=O)N2CCNC(=O)C2)c2ccccc2c1=O,–,inactive: 4.04%
CCOC(=O)c1cc(-c2ccccc2)n(-c2cccc(C(=O)Nc3cccc(SC)c3)c2)c1C,"inconclusive: 11.2 µM [inhibitor, full curve, poor fit]",–
Cc1ccc(C(=O)c2cn(Cc3cccc(Cl)c3)c3nc(C)ccc3c2=O)cc1,"inconclusive: 8.91 µM [inhibitor, full curve]",–
O=C(NCCc1ccccc1)c1ccc2c(c1)N(Cc1ccc(Cl)cc1)C(=O)CS2,"inconclusive: 20 µM [inhibitor, full curve, poor fit]",–
CCn1cc(C(=O)N(C)Cc2ccccc2)c(=O)c2cc(S(=O)(=O)N3CCc4ccccc4C3)ccc21,"inconclusive: 89.1 µM [inhibitor, single point]",–
COc1cc(C)ccc1OCCSc1nc2ccc(NC(=O)c3ccco3)cc2s1,"inconclusive: 22.4 µM [inhibitor, partial curve, poor fit]",–
O=S(=O)(c1ccc(Br)s1)N1CCN(c2cccc(C(F)(F)F)c2)CC1,"inconclusive: 50.1 µM [inhibitor, partial curve, poor fit]",–
O=C(CCCn1c2ccccc2c(=O)c2ccccc21)Nc1cccc(Cl)c1,"inconclusive: 28.2 µM [inhibitor, single point]",–
COc1cccc(CNC(=O)c2cc3c(-c4ccccc4F)nn(C)c3s2)c1,"inconclusive: 15.8 µM [inhibitor, full curve, poor fit]",–
O=C(Nc1ccc(F)cc1F)C1CCN(c2ncccn2)CC1,"inconclusive: 56.2 µM [inhibitor, partial curve, poor fit]",–
COc1ccc(C23CC4CC(CC(C(=O)Nc5nc(C)cs5)(C4)C2)C3)cc1,–,inactive: -9.12%
COc1cccc2c(C)nc(Nc3nc(-c4ccccc4)cc(=O)[nH]3)nc12,"inconclusive: 22.4 µM [inhibitor, full curve, poor fit]",–
Cc1ccc(N2CCN(C(=O)c3nn(C)c4c3CS(=O)(=O)c3ccccc3-4)CC2)c(C)c1,"inconclusive: 50.1 µM [inhibitor, partial curve, poor fit]",–
COc1nc(C(=O)NC2(c3ccccc3)CCC2)cc2ccccc12,"inconclusive: 79.4 µM [inhibitor, partial curve, poor fit]",–
CN(C)c1oc(-c2ccc(F)cc2)nc1S(=O)(=O)c1ccc2c(c1)OCCO2,"inconclusive: 31.6 µM [inhibitor, partial curve, poor fit]",–
CCCN1CCN(c2ncnc3sc(C(=O)Nc4ccc(C(C)C)cc4)c(C)c23)CC1,"inconclusive: 70.8 µM [inhibitor, partial curve, poor fit]",–
O=C1C(O)=C(c2ccccc2)C(c2ccccc2F)N1c1ccc(F)cc1 (stereo not given),–,inactive: -5.69%
COc1ccc(CNC(=O)CSCc2nc(-c3ccccc3C)oc2C)cc1,"inconclusive: 79.4 µM [inhibitor, partial curve, poor fit]",–
COc1ccc(-c2ccc3c(N)c(C(=O)c4ccc(OC)c(OC)c4)sc3n2)cc1,"inconclusive: 22.4 µM [inhibitor, partial curve, poor fit]",–
COc1ccc(Oc2c(C)oc3cc(OCC(=O)N4CCCCCC4)ccc3c2=O)cc1,"inconclusive: 28.2 µM [inhibitor, partial curve, poor fit]",–
Oc1c(Cl)cc(Cl)cc1C=Nc1cccc2ccccc12,–,inactive: 21.7%
Cc1ccc(C)c(N2CCN(C(=O)c3cn(CC(C)C)c(=O)c4c3c3ccccc3n4C)CC2)c1,active: 28.2 µM,–
CC(=O)N1CCCc2cc(S(=O)(=O)N3CCCC(C(=O)N4CCN(c5cccc(Cl)c5)CC4)C3)ccc21 (stereo not given),"inconclusive: 25.1 µM [inhibitor, full curve, poor fit]",–
CCc1ccc(C(=O)c2cn(CC(=O)Nc3ccc(Cl)cc3)c3cc4c(cc3c2=O)OCO4)cc1,"inconclusive: 14.1 µM [inhibitor, full curve, poor fit]",–
O=C(CNC(=O)N1CC(=O)Nc2ccccc21)Nc1ccc2c(c1)OCO2,–,inactive: 30.1%
CCc1ccc(C(=O)c2cn(CC(=O)Nc3ccc4c(c3)OCO4)c3ccc(CC)cc3c2=O)cc1,"inconclusive: 50.1 µM [inhibitor, partial curve, poor fit]",–
Cc1ccc(Nc2nc3nonc3nc2Nc2cccc(C(F)(F)F)c2)cc1Cl,"inconclusive: 50.1 µM [inhibitor, partial curve, poor fit]",–
Cc1ccc(NC(=O)CSc2nnc3scc(-c4ccc(Cl)cc4)n23)cc1,"inconclusive: 100 µM [inhibitor, single point]",–
